Results from article PMC10604658.
These are yes or no findings as the source states them, for the method shown. Binding seen in cells or lysates may run through a third protein. Some results given as binding are weak or reduced against the parent protein; the word gives no strength. Where a sequence is shown, tags or fusion partners need not be part of it.

Protein sequences, listed by entry. Tags and fused reporters are not part of them.
UniProt Q6GQQ9: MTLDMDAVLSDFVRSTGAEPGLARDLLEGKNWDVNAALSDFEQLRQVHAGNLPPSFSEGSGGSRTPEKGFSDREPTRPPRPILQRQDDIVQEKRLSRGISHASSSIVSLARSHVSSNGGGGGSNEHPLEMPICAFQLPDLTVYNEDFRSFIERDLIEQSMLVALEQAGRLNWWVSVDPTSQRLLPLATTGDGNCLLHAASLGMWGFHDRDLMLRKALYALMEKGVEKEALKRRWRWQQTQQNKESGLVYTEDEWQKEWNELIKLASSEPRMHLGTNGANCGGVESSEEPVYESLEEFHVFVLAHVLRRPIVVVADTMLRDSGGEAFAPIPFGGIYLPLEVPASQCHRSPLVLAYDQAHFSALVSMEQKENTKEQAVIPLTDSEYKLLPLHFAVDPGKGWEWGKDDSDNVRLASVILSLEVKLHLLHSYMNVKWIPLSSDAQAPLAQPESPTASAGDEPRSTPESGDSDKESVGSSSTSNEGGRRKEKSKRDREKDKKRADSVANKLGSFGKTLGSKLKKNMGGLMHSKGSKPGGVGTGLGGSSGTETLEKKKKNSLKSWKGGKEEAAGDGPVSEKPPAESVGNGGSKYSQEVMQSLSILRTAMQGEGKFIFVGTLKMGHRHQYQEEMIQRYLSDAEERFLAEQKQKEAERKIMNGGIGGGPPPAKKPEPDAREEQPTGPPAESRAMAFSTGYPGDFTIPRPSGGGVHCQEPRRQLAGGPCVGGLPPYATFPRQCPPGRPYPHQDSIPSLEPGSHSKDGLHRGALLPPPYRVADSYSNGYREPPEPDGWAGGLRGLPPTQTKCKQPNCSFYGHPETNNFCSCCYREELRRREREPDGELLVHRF

Key:
Assay in all cases: pull-down; HEK293T cells co-transfected with MYC-ETS2 (or its mutants) and SFB-DUB (or USP39 mutants); SFB protein pulled down with S-protein agarose beads from NETN lysate, overnight at 4 °C; bound MYC protein detected by anti-MYC blot
SFB-OTUD7A (human) = target: T1, SFB-OTUD7A (human) (UniProt Q8TE49)
T1 sequence: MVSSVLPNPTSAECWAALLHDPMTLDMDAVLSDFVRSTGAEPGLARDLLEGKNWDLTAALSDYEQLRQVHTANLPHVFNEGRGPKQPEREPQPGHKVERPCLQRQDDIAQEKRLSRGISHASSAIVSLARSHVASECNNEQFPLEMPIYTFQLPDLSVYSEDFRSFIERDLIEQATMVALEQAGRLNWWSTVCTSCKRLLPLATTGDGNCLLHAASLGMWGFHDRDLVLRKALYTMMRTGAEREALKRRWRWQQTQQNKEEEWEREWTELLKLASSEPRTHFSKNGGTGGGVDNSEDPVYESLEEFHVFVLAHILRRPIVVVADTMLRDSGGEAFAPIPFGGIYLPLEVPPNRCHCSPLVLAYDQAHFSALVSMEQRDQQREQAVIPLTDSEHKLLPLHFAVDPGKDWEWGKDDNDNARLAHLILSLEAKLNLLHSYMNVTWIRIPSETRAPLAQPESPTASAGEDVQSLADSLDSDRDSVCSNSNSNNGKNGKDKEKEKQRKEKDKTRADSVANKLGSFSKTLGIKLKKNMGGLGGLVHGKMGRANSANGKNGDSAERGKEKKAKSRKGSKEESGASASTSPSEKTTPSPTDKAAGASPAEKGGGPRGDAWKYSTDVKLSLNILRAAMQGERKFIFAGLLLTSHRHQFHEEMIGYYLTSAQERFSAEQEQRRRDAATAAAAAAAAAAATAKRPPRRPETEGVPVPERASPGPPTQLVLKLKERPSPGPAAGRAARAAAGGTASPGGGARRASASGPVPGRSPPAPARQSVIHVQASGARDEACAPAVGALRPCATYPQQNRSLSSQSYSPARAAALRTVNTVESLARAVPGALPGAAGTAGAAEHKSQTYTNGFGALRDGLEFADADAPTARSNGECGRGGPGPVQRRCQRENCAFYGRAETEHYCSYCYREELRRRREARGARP

SFB-OTUD7B (human) = SFB-OTUD7B (human) (UniProt Q6GQQ9)
[1] = target: T2, SFB-USP39 ΔUSP (ubiquitin-specific protease domain-deleted, aa 1–219) (human) (UniProt Q53GS9)
T2 sequence: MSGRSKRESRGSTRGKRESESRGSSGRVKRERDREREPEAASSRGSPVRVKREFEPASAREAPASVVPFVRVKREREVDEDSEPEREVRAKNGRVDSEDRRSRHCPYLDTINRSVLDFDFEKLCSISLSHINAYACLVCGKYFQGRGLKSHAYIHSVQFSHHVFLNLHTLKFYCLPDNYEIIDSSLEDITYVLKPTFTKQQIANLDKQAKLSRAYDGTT

[2] = target: T3, SFB-USP39 ΔZNF (zinc finger domain-deleted, aa 1–102 & 201–565) (human) (UniProt Q53GS9)
T3 sequence: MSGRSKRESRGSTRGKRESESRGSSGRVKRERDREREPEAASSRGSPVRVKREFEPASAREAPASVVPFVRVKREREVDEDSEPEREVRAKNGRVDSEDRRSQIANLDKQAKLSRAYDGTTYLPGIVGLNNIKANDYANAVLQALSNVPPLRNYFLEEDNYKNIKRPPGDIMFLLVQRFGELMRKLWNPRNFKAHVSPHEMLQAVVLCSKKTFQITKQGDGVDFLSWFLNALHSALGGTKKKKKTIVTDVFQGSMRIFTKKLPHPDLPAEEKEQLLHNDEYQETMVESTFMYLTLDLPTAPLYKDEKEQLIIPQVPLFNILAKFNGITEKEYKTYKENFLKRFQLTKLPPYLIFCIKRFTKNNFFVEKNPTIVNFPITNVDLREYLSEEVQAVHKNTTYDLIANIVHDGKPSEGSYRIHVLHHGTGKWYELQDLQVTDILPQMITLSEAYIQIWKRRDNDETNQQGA

SFB-USP44 (human) = target: T4, SFB-USP44 (human) (UniProt Q9H0E7)
T4 sequence: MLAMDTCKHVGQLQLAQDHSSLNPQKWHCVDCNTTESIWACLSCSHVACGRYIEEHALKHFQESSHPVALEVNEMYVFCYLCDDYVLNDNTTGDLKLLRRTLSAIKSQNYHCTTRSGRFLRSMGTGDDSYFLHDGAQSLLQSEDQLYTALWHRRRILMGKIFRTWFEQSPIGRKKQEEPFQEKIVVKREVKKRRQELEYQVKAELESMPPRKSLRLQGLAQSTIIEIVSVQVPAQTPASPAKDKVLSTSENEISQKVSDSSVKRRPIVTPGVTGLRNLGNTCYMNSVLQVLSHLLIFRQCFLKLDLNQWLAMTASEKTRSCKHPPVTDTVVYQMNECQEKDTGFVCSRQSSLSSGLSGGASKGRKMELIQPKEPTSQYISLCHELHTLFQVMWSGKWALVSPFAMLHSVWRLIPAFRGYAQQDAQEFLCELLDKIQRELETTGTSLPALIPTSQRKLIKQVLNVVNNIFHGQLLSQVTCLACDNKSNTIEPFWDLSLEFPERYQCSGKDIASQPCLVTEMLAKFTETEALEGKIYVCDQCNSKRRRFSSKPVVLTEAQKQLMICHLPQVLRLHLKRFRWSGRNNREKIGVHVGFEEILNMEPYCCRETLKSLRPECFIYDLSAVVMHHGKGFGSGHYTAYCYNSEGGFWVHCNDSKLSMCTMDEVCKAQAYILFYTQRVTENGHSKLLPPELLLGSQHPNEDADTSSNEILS

B1: MYC-ETS2 (protein, UniProt P15036 1-469)
chain: MNDFGIKNMDQVAPVANSYRGTLKRQPAFDTFDGSLFAVFPSLNEEQTLQEVPTGLDSISHDSANCELPLLTPCSKAVMSQALKATFSGFKKEQRRLGIPKNPWLWSEQQVCQWLLWATNEFSLVNVNLQRFGMNGQMLCNLGKERFLELAPDFVGDILWEHLEQMIKENQEKTEDQYEENSHLTSVPHWINSNTLGFGTEQAPYGMQTQNYPKGGLLDSMCPASTPSVLSSEQEFQMFPKSRLSSVSVTYCSVSQDFPGSNLNLLTNNSGTPKDHDSPENGADSFESSDSLLQSWNSQSSLLDVQRVPSFESFEDDCSQSLCLNKPTMSFKDYIQERSDPVEQGKPVIPAAVLAGFTGSGPIQLWQFLLELLSDKSCQSFISWTGDGWEFKLADPDEVARRWGKRKNKPKMNYEKLSRGLRYYYDKNIIHKTSGKRYVYRFVCDLQNLLGFTPEELHAILGVQPDTED
binding (SFB-OTUD7A (human)): binds
binding (SFB-OTUD7B (human)): binds
binding [1]: binds
binding [2]: binds
binding (SFB-USP44 (human)): binds weakly
